Results: publication PMC5892938
The other results are listed elsewhere or left out. At the low end of the ranking the order means little.

Each sequence was assayed against GST-SBP-SLBP (stem-loop binding protein) (UniProt Q14493) (assay: targeted RNA Bind-n-Seq). Conditions: RBNS binding buffer: 25 mM Tris pH 7.5, 150 mM KCl, 3 mM MgCl2, 0.1% Tween, 0.5 mg/mL BSA, 1 mM DTT; 27 nM protein, 750 pM RNA pool; temperature not stated; high values mean tight binding.
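Also: DESeq read counts versus GST-SBP nonspecific binding control pulldown.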

| Sequence | binding signal (log2 fold change) |
| --- | --- |
| GGUCACGUCUCAAUCAACUCAGUCUCAGGAGUUUACUCCUGUUUUCUCAACAGCUCGCAGUCAAG | -0.0414 |
| GGUCACGUCUCAAUCAACUCUUCCCCAGGAGUUUACUCCUGCUAAUUCAACAGCUCGCAGUCAAG | -0.0235 |
| GGUCACGUCUCAAUCAACUCUACUCCCAGGGAAACCCCUGGUAUAUUCAACAGCUCGCAGUCAAG | -0.211 |
| GGUCACGUCUCAAUCAACUCCAUAGAGGGGGGGAAAACCCCUUUACCCUCAUCUUCAACAGCUCGCAGUCAAG | 0.112 |
| GGUCACGUCUCAAUCAACUCUACUCCCAGGGAAAGCCCUGGUAAUUUCAACAGCUCGCAGUCAAG | -0.0583 |
| GGUCACGUCUCAAUCAACUCCUUAGAGGGGGGGAAAACCCCUUUACCCUCAUUUUCAACAGCUCGCAGUCAAG | -0.386 |
| GGUCACGUCUCAAUCAACUCAUUUUCCAGGGAAAGCCCUGGUUUAUUCAACAGCUCGCAGUCAAG | -0.15 |
| GGUCACGUCUCAAUCAACUCAAUUCCCAGGGAAACCCCUGGUAUACUCAACAGCUCGCAGUCAAG | 0.105 |
| GGUCACGUCUCAAUCAACUCAUCGUCAGGAGUUUGCUCCUGCAAUUUCAACAGCUCGCAGUCAAG | 0.0216 |
| GGUCACGUCUCAAUCAACUCAAGUCCAGGAGUUUCCUCCUGCAAAUUCAACAGCUCGCAGUCAAG | -0.11 |
| GGUCACGUCUCAAUCAACUCUUCCCCAGGAGUUUACUCCUGUUAAUUCAACAGCUCGCAGUCAAG | -0.0229 |
| GGUCACGUCUCAAUCAACUCUAUUCCCAGGGAAACCCCUGGCUUUCUCAACAGCUCGCAGUCAAG | 0.0254 |
| GGUCACGUCUCAAUCAACUCAUUCUCAGGAGUUUACUCCUGCAAAUUCAACAGCUCGCAGUCAAG | -0.201 |
| GGUCACGUCUCAAUCAACUCAUUUUCAGGAGUUUACUCCUGCAUUCUCAACAGCUCGCAGUCAAG | -0.0386 |
| GGUCACGUCUCAAUCAACUCAAUCGCAGGAGUUUACUCCUGGUAAUUCAACAGCUCGCAGUCAAG | 0.107 |
| GGUCACGUCUCAAUCAACUCAGUCCCAGGAGUUUCCUCCUGUAUUUUCAACAGCUCGCAGUCAAG | -0.198 |
| GGUCACGUCUCAAUCAACUCUUCUCCCAGGGAAAGCCCUGGUAAACUCAACAGCUCGCAGUCAAG | 0.33 |
| GGUCACGUCUCAAUCAACUCUAGUCCAGGAGUUUACUCCUGUAAUUUCAACAGCUCGCAGUCAAG | -0.0626 |
| GGUCACGUCUCAAUCAACUCUUAUGAGGGGGGGAAAACCCCUUUACCCUCUACAUCAACAGCUCGCAGUCAAG | 0.045 |
| GGUCACGUCUCAAUCAACUCUUACGAGGGGGGGAAAACCCCUUUGCCCUCAUCAUCAACAGCUCGCAGUCAAG | -0.148 |
| GGUCACGUCUCAAUCAACUCCAAGGAGGGGGGGAAAACCCCUUUACCCUCAAUCUCAACAGCUCGCAGUCAAG | 0.482 |
| GGUCACGUCUCAAUCAACUCACAAGAGGGGGGGAAAACCCCUUUGCCCUCAAUUUCAACAGCUCGCAGUCAAG | -0.328 |
| GGUCACGUCUCAAUCAACUCUAUCCCCAGGGAAACCCCUGGCAUACUCAACAGCUCGCAGUCAAG | -0.0221 |
| GGUCACGUCUCAAUCAACUCACAAGAGGGGGGGAAAACCCCUUUGCCCUCAAAUUCAACAGCUCGCAGUCAAG | 0.121 |
| GGUCACGUCUCAAUCAACUCAAUCUCCAGGGAAAACCCUGGCAAUCUCAACAGCUCGCAGUCAAG | -0.00152 |

| Sequence | binding signal (log2 fold change) |
| --- | --- |
| GGUCACGUCUCAAUCAACUCUUCCCCAGGAGUUUACUCCUGUAAAUUCAACAGCUCGCAGUCAAG | -0.0207 |
| GGUCACGUCUCAAUCAACUCCUCAGAGGGGGGGAAAACCCCUUUACCCUCCGUUUCAACAGCUCGCAGUCAAG | -0.466 |
| GGUCACGUCUCAAUCAACUCAUCCCCAGGAGUUUACUCCUGUAAUCUCAACAGCUCGCAGUCAAG | 0.0671 |
| GGUCACGUCUCAAUCAACUCAUCGUCAGGAGUUUUCUCCUGCAAUCUCAACAGCUCGCAGUCAAG | 0.0443 |
| GGUCACGUCUCAAUCAACUCAUCCUCAGGAGUUUCCUCCUGUAUUUUCAACAGCUCGCAGUCAAG | 0.141 |
| GGUCACGUCUCAAUCAACUCCCACGAGGGGGGGAAAACCCCUUUACCCUCAAUAUCAACAGCUCGCAGUCAAG | -0.374 |
| GGUCACGUCUCAAUCAACUCUAUCUCAGGAGUUUUCUCCUGUAUACUCAACAGCUCGCAGUCAAG | 0.0393 |
| GGUCACGUCUCAAUCAACUCAUCCUCAGGAGUUUACUCCUGUUAAGUCAACAGCUCGCAGUCAAG | 0.23 |
| GGUCACGUCUCAAUCAACUCUUCGUCCAGGGAAAUCCCUGGCAAUUUCAACAGCUCGCAGUCAAG | -0.0382 |
| GGUCACGUCUCAAUCAACUCAUCCGAGGGGGGGAAAACCCCUUUACCCUCAAUUUCAACAGCUCGCAGUCAAG | 0.0859 |
| GGUCACGUCUCAAUCAACUCAGUCCCCAGGGAAAACCCUGGUUAAUUCAACAGCUCGCAGUCAAG | -0.295 |
| GGUCACGUCUCAAUCAACUCUUUCCCCAGGGAAACCCCUGGCUUUUUCAACAGCUCGCAGUCAAG | 0.0218 |
| GGUCACGUCUCAAUCAACUCUACUUCAGGAGUUUUCUCCUGCUAACUCAACAGCUCGCAGUCAAG | 0.214 |
| GGUCACGUCUCAAUCAACUCUUUCGCAGGAGUUUUCUCCUGGUAAUUCAACAGCUCGCAGUCAAG | -0.0421 |
| GGUCACGUCUCAAUCAACUCUUUUCCCAGGGAAAGCCCUGGUAAUCUCAACAGCUCGCAGUCAAG | 0.077 |
| GGUCACGUCUCAAUCAACUCAUCGUCAGGAGUUUACUCCUGUAAAUUCAACAGCUCGCAGUCAAG | 0.0178 |
| GGUCACGUCUCAAUCAACUCAGUCUCCAGGGAAAACCCUGGUUUUUUCAACAGCUCGCAGUCAAG | -0.208 |
| GGUCACGUCUCAAUCAACUCUUCCCCCAGGGAAACCCCUGGUUAAUUCAACAGCUCGCAGUCAAG | 0.102 |
| GGUCACGUCUCAAUCAACUCAUAAGAGGGGGGGAAAACCCCUUUACCCUCAAUCUCAACAGCUCGCAGUCAAG | -0.0836 |
| GGUCACGUCUCAAUCAACUCAUUUUCAGGAGUUUGCUCCUGCAUUUUCAACAGCUCGCAGUCAAG | 0.0474 |
| GGUCACGUCUCAAUCAACUCUUCUUCAGGAGUUUCCUCCUGUUUACUCAACAGCUCGCAGUCAAG | 0.0029 |
| GGUCACGUCUCAAUCAACUCUAUUUCAGGAGUUUCCUCCUGCAUUUUCAACAGCUCGCAGUCAAG | 0.0837 |
| GGUCACGUCUCAAUCAACUCCUUAGAGGGGGGGAAAACCCCUUUGCCCUCAAUCUCAACAGCUCGCAGUCAAG | 0.0801 |
| GGUCACGUCUCAAUCAACUCUAUCUCAGGAGUUUACUCCUGCAAAUUCAACAGCUCGCAGUCAAG | 0.00804 |
| GGUCACGUCUCAAUCAACUCUACUCCCAGGGAAAUCCCUGGUAUACUCAACAGCUCGCAGUCAAG | -0.0809 |

| Sequence | binding signal (log2 fold change) |
| --- | --- |
| GGUCACGUCUCAAUCAACUCAACUCCCAGGGAAAACCCUGGUAAUCUCAACAGCUCGCAGUCAAG | -0.0244 |
| GGUCACGUCUCAAUCAACUCUUCUGAGGGGGGGAAAACCCCUUUACCCUCUACAUCAACAGCUCGCAGUCAAG | -0.000555 |
| GGUCACGUCUCAAUCAACUCGUUUUCAGGAGUUUUCUCCUGCUAUCUCAACAGCUCGCAGUCAAG | 0.0977 |
| GGUCACGUCUCAAUCAACUCAAAAGAGGGGGGGAAAACCCCUUUACCCUCAUUCUCAACAGCUCGCAGUCAAG | -0.145 |
| GGUCACGUCUCAAUCAACUCAGUUUCAGGAGUUUACUCCUGCUAAUUCAACAGCUCGCAGUCAAG | 0.253 |
| GGUCACGUCUCAAUCAACUCUUUCCCCAGGGAAAUCCCUGGCAUUCUCAACAGCUCGCAGUCAAG | 0.145 |
| GGUCACGUCUCAAUCAACUCUUCCUCAGGAGUUUGCUCCUGCAUAUUCAACAGCUCGCAGUCAAG | -0.00415 |
| GGUCACGUCUCAAUCAACUCCCACGAGGGGGGGAAAACCCCUUUACCCUCAAAUUCAACAGCUCGCAGUCAAG | 0.135 |
| GGUCACGUCUCAAUCAACUCAAUGGAGGGGGGGAAAACCCCUUUACCCUCAUCAUCAACAGCUCGCAGUCAAG | -0.435 |
| GGUCACGUCUCAAUCAACUCAUUUCCAGGAGUUUGCUCCUGUAAUCUCAACAGCUCGCAGUCAAG | 0.135 |
| GGUCACGUCUCAAUCAACUCAUCCUCAGGAGUUUGCUCCUGUAAUCUCAACAGCUCGCAGUCAAG | 0.122 |
| GGUCACGUCUCAAUCAACUCUUUAGAGGGGGGGAAAACCCCUUUGCCCUCACCAUCAACAGCUCGCAGUCAAG | 0.263 |
| GGUCACGUCUCAAUCAACUCUUUCGAGGGGGGGAAAACCCCUUUACCCUCAACAUCAACAGCUCGCAGUCAAG | 0.235 |
| GGUCACGUCUCAAUCAACUCAAGUCCCAGGGAAAGCCCUGGCUAAUUCAACAGCUCGCAGUCAAG | -0.111 |
| GGUCACGUCUCAAUCAACUCUUCGCCCAGGGAAAUCCCUGGUUAUUUCAACAGCUCGCAGUCAAG | 0.237 |
| GGUCACGUCUCAAUCAACUCUACUUCCAGGGAAAGCCCUGGUAAACUCAACAGCUCGCAGUCAAG | -0.202 |
| GGUCACGUCUCAAUCAACUCACACGAGGGGGGGAAAACCCCUUUACCCUCUAAAUCAACAGCUCGCAGUCAAG | -0.0824 |
| GGUCACGUCUCAAUCAACUCUAAAGAGGGGGGGAAAACCCCUUUACCCUCCAAAUCAACAGCUCGCAGUCAAG | -0.897 |
| GGUCACGUCUCAAUCAACUCAUGUCCAGGAGUUUACUCCUGUAAUUUCAACAGCUCGCAGUCAAG | 0.103 |
| GGUCACGUCUCAAUCAACUCUACUUCCAGGGAAACCCCUGGCAAAUUCAACAGCUCGCAGUCAAG | 0.0813 |
| GGUCACGUCUCAAUCAACUCAGUCUCCAGGGAAACCCCUGGCAUAUUCAACAGCUCGCAGUCAAG | 0.15 |
| GGUCACGUCUCAAUCAACUCAACUUCCAGGGAAAGCCCUGGCAUUUUCAACAGCUCGCAGUCAAG | -0.199 |
| GGUCACGUCUCAAUCAACUCUACUUCAGGAGUUUUCUCCUGCAUACUCAACAGCUCGCAGUCAAG | 0.131 |
| GGUCACGUCUCAAUCAACUCAUCCUCAGGAGUUUACUCCUGCUUUCUCAACAGCUCGCAGUCAAG | 0.105 |
